Each structure is given as a SMILES string. Whole data set: some 110,000 compounds, median “z-score” near -0.1, cut for the highest 2% near 2. The list shows a part of the results.

The results in this text go back to PubChem BioAssay AID488969 (Vanderbilt High Throughput Screening Facility, 2010).

The assay concerns the target Metabotropic glutamate receptor 8 (Rattus norvegicus) (UniProt P70579). The assay is described as follows: rat mGluR8 modulators via GIRK flux, primary screen, cell-based, thallium flux, HTS (AID 488969). Particulars: HEK293 rat mGluR8, GIRK (G protein-gated inwardly rectifying potassium channel) thallium flux, FluoZin2; at 10 µM; stronger effect = higher value; submaximal glutamate (EC20) added with thallium.
Sequence of UniProt P70579 (P70579 whole entry, looked up): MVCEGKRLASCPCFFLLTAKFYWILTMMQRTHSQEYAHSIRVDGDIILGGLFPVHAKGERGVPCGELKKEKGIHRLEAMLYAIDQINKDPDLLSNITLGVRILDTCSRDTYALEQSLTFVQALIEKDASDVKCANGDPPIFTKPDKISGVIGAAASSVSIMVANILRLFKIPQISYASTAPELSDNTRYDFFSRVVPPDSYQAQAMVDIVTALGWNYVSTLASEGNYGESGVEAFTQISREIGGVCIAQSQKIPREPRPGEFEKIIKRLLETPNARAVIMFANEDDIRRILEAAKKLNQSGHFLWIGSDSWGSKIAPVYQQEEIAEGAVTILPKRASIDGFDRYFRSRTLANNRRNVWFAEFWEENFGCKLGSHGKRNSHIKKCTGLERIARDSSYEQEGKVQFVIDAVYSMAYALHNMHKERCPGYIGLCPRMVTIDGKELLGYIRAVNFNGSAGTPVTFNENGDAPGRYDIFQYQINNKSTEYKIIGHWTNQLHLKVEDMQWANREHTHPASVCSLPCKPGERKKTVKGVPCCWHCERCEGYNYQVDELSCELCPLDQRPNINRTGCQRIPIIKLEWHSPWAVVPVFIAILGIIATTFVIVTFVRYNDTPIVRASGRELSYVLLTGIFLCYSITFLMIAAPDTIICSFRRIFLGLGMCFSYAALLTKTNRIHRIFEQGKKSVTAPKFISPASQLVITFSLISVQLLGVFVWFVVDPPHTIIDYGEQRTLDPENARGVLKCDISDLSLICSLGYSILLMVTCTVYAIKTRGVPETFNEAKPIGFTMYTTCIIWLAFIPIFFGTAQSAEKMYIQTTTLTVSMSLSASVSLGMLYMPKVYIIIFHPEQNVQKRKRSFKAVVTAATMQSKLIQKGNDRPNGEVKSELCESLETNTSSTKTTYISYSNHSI
`O=C(c1ccco1)N1CCC(n2nnc3ccccc32)CC1` gave a z-score of -0.0891. As to `Cn1c(=O)c2c(n(Cc3ccccc3)c1=O)NC(=O)C2CC(=O)NCc1cccc(Cl)c1` (stereo not drawn), the z-score is -0.128. The result for `O=C(NCc1ccco1)c1cnn2c(C(F)F)cc(-c3ccccc3)nc12` reads -0.312.

Take `COc1ccccc1N/N=C/c1c(CO)cnc(C)c1O`: the z-score worked out at 0.749. As for `CCOC(=O)c1ccc(CC2S/C(=C(\C#N)C(C)=O)NC2=O)cc1` (stereo not drawn), the figure is -1.15. On to `COc1ccc(S(=O)(=O)Nc2ccccc2C(F)(F)F)cc1`, for which the z-score is -0.0378. The result for `Cc1ccc(S(=O)(=O)N2CCCC2C(=O)O)cc1` (stereo not drawn) reads 0.451; that for `Cc1cccc(NC(=S)NC2CC3CCCC(C2)N3CC(C)C)c1C` (stereo not drawn), -0.0583. As for `O=Nc1ccc(NOC(=O)c2ccc(Br)cc2)cc1`, the figure is -0.0144; as for `CC(C)n1c(SCC(=O)Nc2ccccc2N2CCCCC2)nc2c1c(=O)n(C)c(=O)n2C`, -0.0538; as for `O=C(Oc1coc(CSc2ncccn2)cc1=O)c1ccc(Br)o1`, -0.395. Regarding `N#CCSc1nnc(Cc2cccs2)n1C1CCCCC1`, the z-score was determined as 0.279. The result for `O=C(c1ccccc1Cl)N1N=C(c2ccc(Br)cc2)CC1c1nc2ccccc2[nH]1` (stereo not drawn) reads -0.0429; that for `O=C(COc1cccc(Cl)c1)Nc1ccc(N2CCOCC2)cc1`, -0.304.

As to `O=C(Cc1cccs1)NCCN1CCOCC1`, the z-score was -0.155.

With `CCOC(=O)CC(=O)CSc1nc2ccccc2c(=O)n1-c1ccc(C(=O)NCCOC)cc1`, the z-score was 0.691. The result for `O=C(CSc1nnc(Cc2csc(Nc3cccc(Cl)c3)n2)o1)N1CCc2ccccc21` reads -0.129; that for `CCc1nc(SCC(=O)Nc2sc(C)c(C)c2C(=O)OC)c2ccccc2n1`, -0.709. As for `CC(=O)N1C(c2ccccc2)CC(=O)OC1c1ccc2c(c1)OCO2` (stereo not drawn), the figure is 0.47; as for `Cc1sc2nc(SCC(=O)c3cc(C)n(CC4CCCO4)c3C)n(C(C)C)c(=O)c2c1C` (stereo not drawn), 0.26; as for `CCCCCC(=O)NC(NC(=S)NC1CCS(=O)(=O)C1)C(Cl)(Cl)Cl` (stereo not drawn), 0.31. The result for `COc1ccccc1C(=O)Oc1ccc(C(C)C)cc1` reads -0.107. `COc1ccc(N2CCN(C(=O)Cc3nn(C)c(=O)c4ccccc34)CC2)cc1` registered a z-score of -0.144. The result for `CCOC(=O)c1sc(-c2ccc(OC)cc2)cc1N` reads -0.101. As for `COc1ccc(C2=NOC(C(=O)O)C2)cc1` (stereo not drawn), the figure is 0.193. The result for `CC(=O)Nc1ccc2c(c1)OCCOCCOc1cc(NC(C)=O)ccc1OCCOCCOCCO2` reads -0.78. As to `COCCNC(=O)c1ccc(NC(C)=O)cc1`, the z-score is -0.165. The result for `CCOC(=O)Cc1csc(N/N=C/c2ccc(C(F)(F)F)cc2)n1` reads -0.035; that for `CCN(CC)CCN1C(=O)C(O)=C(C(=O)c2ccco2)C1c1ccccn1` (stereo not drawn), -0.137; that for `O=C(CCN1C(=O)COc2ccccc21)NCCN1CCc2ccccc2C1`, -0.306. As for `Cc1ccc(-c2noc(C3CCCCC3)n2)cc1`, the figure is 0.968; as for `CCC(=O)OCCNc1cc(SCCC(=O)OC)c2nonc2c1[N+](=O)[O-]`, -0.319. In turn, `O=C(Nc1ccon1)c1cc2c(s1)CCCC2` had a z-score of -0.236.

As to `O=C(Cn1cnc2ccccc21)N/N=C/c1ccccn1`, the z-score came to 0.141.

For `Cc1cc2cc(CCNS(C)(=O)=O)c(=O)[nH]c2cc1C`, the z-score was -0.359.

The molecule `c1ccc(-n2nnnc2-n2cnc3ccccc32)cc1` gave a z-score of -0.142.

In turn, `COc1cccc(/C=N/NC(=O)c2ccc(=O)n(C)c2)c1O` came in with a z-score of -0.083.

Turning to `CCn1c2ccccc2c2cc(NC(=O)C(C)Oc3ccccc3)ccc21` (stereo not drawn), the z-score was -0.0626. The result for `O=C(OCc1ccccc1)C1=NNC2C(=O)N(c3ccccc3)C(=O)C12` (stereo not drawn) reads 0.112; that for `O=C(Cc1ccccc1)NC(NC(=S)Nc1cc(Cl)ccc1Cl)C(Cl)(Cl)Cl` (stereo not drawn), -0.195.

For `Cc1cc2ccccc2n1CCNC(=O)c1ccc(S(=O)(=O)N2CCCCC2)cc1`, the z-score came out at 1.13. As for `CC(=O)C1=C(O)C(=O)N(Cc2cccnc2)C1c1ccc(C)cc1` (stereo not drawn), the figure is 0.0739. In the case of `C=CCSC1=C(C#N)C(c2ccccc2)CC(=O)N1` (stereo not drawn), the z-score was -0.258. As for `CCOC(=O)N1CCN(c2nc3ccccc3nc2C(C#N)S(=O)(=O)c2ccc(C)cc2)CC1` (stereo not drawn), the figure is -0.937; as for `COc1ccccc1CNC(=O)C1CC(c2ccc([N+](=O)[O-])cc2)=NO1` (stereo not drawn), -0.0054; as for `O=C(NCCO)c1ccc(-c2nnc(N3CCOCC3)c3ccccc23)cc1`, -0.293. As for `CC1=NN(C(=S)Nc2ccccc2)C(c2ccccc2)C1` (stereo not drawn), the figure is 0.129; as for `S=c1[nH]nc(-c2ccc(Cl)cc2)n1Cc1ccccc1`, 0.351. As for `CC(NC(=O)c1ccc(N(C)C)cc1)C1CC2CCC1C2` (stereo not drawn), the figure is -0.166. `Cc1ccc(-n2nc(CN3CCOCC3)c(-c3ccccc3)c2N)c(C)c1` showed a z-score of -0.0359. The result for `O=C(Nc1ccc2c(c1)OCCO2)c1cccc2nc3ccccc3nc12` reads -0.26; that for `CC(C(=O)NCc1ccccc1)N1C(=O)CN(C)C(=O)c2ccccc21` (stereo not drawn), -0.0841. The result for `O=C(c1ccco1)N1CCN(C(=O)C2CCCN(S(=O)(=O)Cc3ccccc3)C2)CC1` (stereo not drawn) reads 0.318. As for `O=C(CCCc1cccs1)Nc1nc2c(s1)CCCC2`, the figure is -0.0904. Take `CC(C)(C)c1ccc(S(=O)(=O)NC(Cc2ccccc2)C(=O)O)cc1` (stereo not drawn): the z-score came to 0.161. The result for `C=CCn1c(SCc2csc(C)n2)nc2sc3c(c2c1=O)CCC(C)C3` (stereo not drawn) reads -0.156; that for `CSc1ccccc1NC(=O)Cn1c(-c2cscn2)nc2ccccc21`, -0.447.

`COc1ccc(CCNC(=O)C2CC(c3c(Cl)cccc3Cl)=NO2)cc1` (stereo not drawn) returned a z-score of -0.318.

The molecule `O=C(Nc1ccccc1-c1nnn(CC(=O)N2CCCc3ccccc32)n1)c1ccc(Cl)cc1` came in with a z-score of -0.222. The result for `Cc1ccccc1-n1c(SCC(=O)Nc2ccc3c(c2)OCO3)nnc1-c1ccccn1` reads -0.56. As for `CC(C)(C)n1nc(-c2ccc(Cl)cc2)c2c(N)ncnc21`, the figure is -0.248; as for `NC(=O)c1c(NC(=O)C2c3ccccc3Oc3ccccc32)sc2c1CCCCC2`, -0.11; as for `Cc1nc2nc[nH]n2c(=O)c1CC(=O)O`, -0.46. Molecule `CCCOc1ccc(C2/C(=C(/O)c3ccc(F)cc3)C(=O)C(=O)N2CCCN(C)C)cc1` (stereo not drawn) registered a z-score of 0.269. As for `Cc1cccc(NCc2cc(Cl)cc(Cl)c2O)n1`, the figure is -0.205; as for `CN(C)c1ccc(N=Nc2ccccc2C(=O)OCC(=O)NC2CCCC2)cc1`, -0.235; as for `COc1ccccc1NCCC(=O)OCC(=O)NC1CCCCC1`, 0.0617. As for `Cc1ccc(NC(=O)Nc2ccc(C(=O)N3CCOCC3)cc2)cc1`, the figure is 0.492; as for `Nc1nonc1-c1noc(N2CCCCC2)n1`, 0.26. Molecule `COc1cc2c(cc1OC)CN(CC(=O)NC(=O)NCc1ccco1)CC2` registered a z-score of 0.468. `Cc1nc(C)c(-c2csc(Nc3cccnc3)n2)s1` yielded a z-score of -0.44. The result for `Cc1ccc(S(=O)(=O)N2CCN(C3CC(=O)N(Cc4ccccc4)C3=O)CC2)cc1C` (stereo not drawn) reads -0.767; that for `COC(=O)C1=C(C)NC(C)=C(C(=O)OC)C1c1cc2cc(C)ccc2[nH]c1=O`, 0.059. As for `CC(=O)Nc1ccc(Oc2cc(C#N)c(C#N)cc2N2CCOCC2)cc1`, the figure is 0.123. The result for `COc1cccc(CNC(=O)CSCc2cnn(-c3ccccc3)c2-n2cccc2)c1OC` reads 0.523; that for `COc1ccc(C(=O)NC(=S)NC(C)C)cc1Br`, 1.79; that for `CCCc1nc2ccccc2c(C(=O)OCC(=O)NCc2ccco2)c1CC`, -0.557. For `COc1cc(-c2nc(S(=O)(=O)c3ccccc3)c(N3CCOCC3)o2)cc(OC)c1OC`, the z-score is 0.0345. As for `Oc1ccc(/C=N/Nc2nccnc2Cl)cc1`, the figure is 0.0312. Turning to `COc1cccc(Nc2nc(NCCO)c3ccccc3n2)c1`, the z-score was -0.496.

The molecule `CCC(SCC(=O)OC)C(=O)Nc1nnc(C(C)C)s1` (stereo not drawn) displayed a z-score of -0.478. `CCCN(Cc1cc2ccc(C)cc2[nH]c1=O)S(=O)(=O)c1ccccc1` gave a z-score of 0.0039.

For `Cc1ccc(C)c(N2C(=O)CN=C2Nc2ccccc2Cl)c1`, the z-score is -0.307. The result for `CCOc1cc(CNn2cnnc2)ccc1OCC(=O)NC1CCCCC1` reads -0.0663; that for `Cc1cccc(NC2=NCC(=O)N2Cc2ccccc2)c1`, -0.249; that for `CCCCSc1nc(C)cc(NC(=S)Nc2ccc(OC)cc2)n1`, 1.27. As for `O=C(CN1CCN(Cc2ccccc2)CC1)c1ccccc1`, the figure is -1.02. Regarding `CCn1nc2cc(C(=O)NCC34CC5CC(CC(C5)C3)C4)ccc2c1OC`, the z-score is -0.258. As for `CC1(C)CC(=O)C2=C(C1)N(C1CCCCC1)C(=O)C2(O)C(F)(F)F` (stereo not drawn), the figure is -0.133; as for `COCCNC(=O)COc1ccc(Br)cc1Cl`, -0.00967; as for `CCCN1CCN(C(=O)c2cccc3c2C(=O)N(CCOC)C3)CC1`, -0.608. The molecule `CCCCNC(=O)NNC(=O)COc1cc(C)cc(C)c1` yielded a z-score of -0.202. The result for `CCOc1cc(/C=N/n2cnnc2)cc(Br)c1O` reads 0.377; that for `COc1ccc(C(=O)N(C)Cc2ccccc2)cc1Br`, -0.329; that for `c1cncc(-c2noc(C34CC5CC(CC(C5)C3)C4)n2)c1`, 0.166. As for `Cc1c(NC(=O)c2ccc3c(c2)OCO3)cccc1-c1nc2ccccc2s1`, the figure is -0.296; as for `CCn1c(Cn2nnc(-c3ccccc3)n2)nnc1SCc1ccc(Cl)c(Cl)c1`, -0.359. `Cc1ccc(S(=O)(=O)CCC(=O)N2CCN(c3ccc(Cl)cc3)CC2)cc1` displayed a z-score of -0.426. As for `CCc1nnc(NS(=O)(=O)c2ccc(NC(=S)NC(=O)c3ccc(OC)c(OC)c3)cc2)s1`, the figure is -0.423; as for `CCOC(=O)c1sc(NC(=O)c2ccncc2)nc1C`, -0.254; as for `COc1cccc(CNC(=O)c2ccc(S(=O)(=O)N3CCCC3)cc2)c1`, -0.159.

On to `O=C(Cn1nnc(-c2ccncc2)n1)N1CCc2ccccc21`, for which the z-score is 1.39.

`c1ccc(-n2c(SCc3ccncc3)nnc2-c2ccco2)cc1` returned a z-score of -1.1. As for `CCOc1ccc(-c2noc(CCCC(N)=O)n2)cc1OC`, the figure is -0.356; as for `CC1(C)CC(N(Cc2ccco2)C(=O)Cc2ccccc2)CCO1` (stereo not drawn), 0.681; as for `CC(Oc1ccccc1)C(=O)Nc1cccc(-c2nc3ccccc3[nH]2)c1` (stereo not drawn), -0.367. As for `N#CCCCCn1c(-c2cncs2)nc2ccccc21`, the figure is 0.399. The result for `O=C1CCCC(=O)C1=Cc1c[nH]c2ccccc12` reads -1.69. Regarding `CCc1nccn1S(=O)(=O)c1ccc(C)c(C)c1`, the z-score is -0.0208.

Molecule `CCOc1ccc(C2C3=C(Nc4nc(N)[nH]c(=O)c42)c2ccccc2C3=O)cc1` (stereo not drawn) had a z-score of -0.168.

In the case of `Cc1ccc(S(=O)(=O)CNC(=S)c2ccc3ccccc3c2)cc1`, the z-score was -0.134.

In turn, `COc1ccc(-c2noc(CCC(=O)NCc3cc(Br)ccc3OC)n2)cc1` displayed a z-score of 1.13.

Consider `CCN1CCN(CC(=O)Nc2ccc3c(c2)OCCO3)C(=O)C1=O`, for which the z-score was 0.232.
